Laboratory results: PubChem BioAssay AID938 (National Center for Advancing Translational Sciences (NCATS), 2007)
In all, about 73,000 compounds went through this assay and about 1,800 (2.5%) were called active. The inconclusive results got no clear call from the source; some entries with a clear call stand among them for comparison. Calls come from the whole dose curve; as a rule, active = well fitted activation curve with a large enough effect; inconclusive = small, poorly fitted or top-dose-only effect; inactive = no such curve, though single readings can be large or run the other way. Potencies of inconclusive entries are left out as doubtful fits.

Assay: qHTS Assay for Agonists of the Thyroid Stimulating Hormone Receptor: Activators of Intracellular cAMP Concentrations in Parental HEK 293; note: nearly all actives have a fitted effect of over 55% in size; for activation: % of control where 0% means no effect
Conditions: parental HEK293 CNG cAMP sensor, membrane potential fluorescence; activation: at 57.1 µM (top of the series) unless noted
Method in brief: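 Counterscreen for endogenous-receptor signalling: CNG-channel HEK 293 cells report cAMP rise by membrane depolarization. After 60 min dye equilibration with 100 uM RO 20-1724, compounds incubated 30 min before bottom-read fluorescence at 590 nm.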
Potency is the fitted concentration of half-maximal effect; tags give direction and shape of the fitted curve.

SMILES	Potency	activation
O=S(=O)(Nc1nc2ccccc2nc1NCc1ccco1)c1ccccc1	inconclusive [activator, single point]	–
CC1CCCN(C(=O)c2ccc3c(c2)C(=O)N(CCC2=CCCCC2)C3=O)C1 (configuration not stated)	inconclusive [activator, full curve]	–
CCNc1ncc2nc(-c3ccc(OC)cc3)c(=O)n(-c3ccc(OC)cc3)c2n1	active: 31.6 µM	–
O=C(CCc1ccc(O)cc1)c1c(O)cc(O)cc1O[C@@H]1O[C@@H](CO)[C@@H](O)[C@@H](O)[C@H]1O	–	inactive: 7.44%
N#CCCn1c(-c2nonc2NC(=O)c2ccccc2Cl)nc2ccccc21	inconclusive [activator, single point]	–
COC(=O)c1ccc(CN(c2ccccc2OC)S(=O)(=O)c2cccs2)o1	inconclusive [activator, partial curve]	–
O=C(Nc1cccc2cccc(NC(=O)c3ccco3)c12)c1ccco1	–	inactive: 0.548%
CCN1CCCC1CNc1ncnc2c1[nH]c1ccc(F)cc12 (configuration not stated)	–	inactive: 10.1%
C1CCOC1	–	inconclusive: 30.3% [activator]
COc1c(Cl)cc(Cl)cc1/C=N/n1cnnc1	inconclusive [activator, single point]	–
OC12CCCCC1C(c1ccc3c(c1)OCO3)N(Cc1ccccc1F)CC2 (configuration not stated)	inconclusive [activator, partial curve]	–
Cc1ccccc1NC(=O)CCN1CCN(C/C=C/c2ccccc2)CC1	inconclusive [activator, single point]	–
N=c1c2c3c(sc2ncn1CCN1CCOCC1)CCCCC3	–	inactive: 12.3%
COc1cccc(NC(=O)c2oc3ccccc3c2NC(=O)C(C)(C)C)c1	active: 1 µM	–
CC(=O)Oc1ccc(Oc2ccc(-c3noc(C)n3)cc2)cc1	inconclusive [activator, single point]	–
O=C(c1cccc2c1-c1ccccc1/C2=N/O)N1CCCCC1	active: 12.6 µM	–
COc1ccccc1CNc1ncncc1-c1ccccc1Cl	inconclusive [activator, partial curve]	–
O=C(c1ccco1)c1cn(CC(=O)N2CCCc3ccccc32)c2ccccc12	active: 25.1 µM	–
Cc1cc(NC(=O)CSc2cn(CCNC(=O)c3ccc(Cl)cc3)c3ccccc23)no1	inconclusive [activator, single point]	–
O[C@@H](c1ccccc1)C1CCN(CCc2ccccc2)CC1	inconclusive [activator, partial curve]	–
O=C(CN1CCN(c2ncccn2)CC1)N(Cc1ccccc1)c1ccc(F)cc1	inconclusive [activator, single point]	–
O=C(N1CCCCC1)C1(c2ccccc2)CCOCC1	active: 15.8 µM	–
CCCCNc1cc(C)oc(=O)c1C(C)=O	–	inactive: -0.676%
COc1ccc(Oc2ncc3ncc(=O)n(Cc4ccc(F)cc4)c3n2)cc1	inconclusive [activator, partial curve]	–

SMILES	Potency	activation
O=C(c1ccccc1-c1ccccc1)N1CCCC1	inconclusive [activator, partial curve]	–
Cc1c(C(=O)NC2CCCCC2)sc2nc3ccc(N)cc3n12	–	inactive: -5.17%
CCn1c(C(=O)NCCCN2CCc3ccccc3C2)cc2sccc21	inconclusive [activator, single point]	–
CCNc1ncc2nc(CCc3ccccc3)c(=O)n(C)c2n1	inconclusive [activator, full curve, poor fit]	–
COC(=O)c1ccc(CSc2nc3scc(-c4cccs4)c3c(=O)[nH]2)o1	inconclusive [activator, partial curve]	–
Clc1cccc(-c2cc3nc4c(c(N5CCOCC5)n3n2)CCCC4)c1	–	inactive: 26.6%
CC(CCN)(CCN)[N+](=O)[O-]	–	inactive: 8.3% [at 11.4 µM]
COc1ccccc1OCCC(=O)OCC(=O)NC(=O)NC(C)(C)C	inconclusive [activator, partial curve]	–
CCN(CC)S(=O)(=O)c1cc(C(=O)NC2CCCCC2)ccc1C	inconclusive [activator, partial curve]	–
Cc1cc(NC(=O)C2CCCCC2)nc2c1c(=O)oc1ccccc12	inconclusive [activator, single point]	–
O=C(Nc1ccc2c(c1)OCO2)c1noc2c1CCCCC2	inconclusive [activator, single point]	–
COc1ccc(OC)c(CN2CCCC(C(=O)N3CCCCC3)C2)c1 (configuration not stated)	inconclusive [activator, single point]	–
CC(C)(C)c1[nH]nc2c1C(c1ccc(OC(=O)c3ccco3)cc1)C(C#N)=C(N)O2 (configuration not stated)	inconclusive [activator, single point]	–
O=C(CCCCCn1c(SCc2ccncc2)nc2ccccc2c1=O)NCc1ccco1	inconclusive [activator, partial curve]	–
O=C(CSc1nc(-c2ccccc2)cs1)NC(=O)NCc1ccco1	–	inactive: 24.8%
Cc1ccccc1-c1ccc2ncnc(NCc3cccs3)c2c1	active: 3.98 µM	–
COc1ccc2cc(S(=O)(=O)N3CCOCC3)ccc2c1	inconclusive [activator, single point]	–
COc1ccc(C)cc1-n1nnnc1SCn1nnc2ccccc2c1=O	inconclusive [activator, partial curve]	–
COc1ccc(C(c2nnnn2C(C)(C)C)N2CCN(c3nc4ccccc4s3)CC2)cc1 (configuration not stated)	–	inactive: 29.5%
CCc1ccc(C2CC(c3ccccc3Cl)Nc3nc(N)nn32)cc1 (configuration not stated)	–	inactive: 9.95%
O=C(c1ccncc1)N1CCC2(CCCN(c3ccccn3)C2)CC1	inconclusive [activator, partial curve]	–
O=C(COC(=O)c1ccccc1F)c1ccc(-n2nncc2-c2ccco2)cc1	active: 25.1 µM	–
COc1cccc(C(=O)N(Cc2cc3cc(C)ccc3[nH]c2=O)CC2CCCO2)c1 (configuration not stated)	inconclusive [activator, single point]	–
